From the supplement of paper PMC11417369
The list shows a part of the results.

test system: PfAP2-HC AP2 domain (GST-tagged); test: gcPBM binding intensity (ln(normalized median fluorescence intensity)); higher = stronger DNA binding
Method in brief: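 GST-fused DNA-binding domains of P. falciparum, expressed in E. coli, were applied at about 25 μg on average for 1 h to an Agilent 4 × 180k array of primer-extended double-stranded 36-bp intergenic genomic probes and negative controls. Binding intensity is the highest Masliner-normalised natural-log median intensity across replicate spots of either probe orientation, measured with Alexa488 anti-GST antibody and a 488 nm scan.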

Row | Sequence | gcPBM binding intensity (ln)
1 | AATTTTATTCATTGAGCACACAAAATAAATTATCAA [CACACA_site9079] | 9.49
2 | GCTTAATGTCATATATCACACATGAAAATATATATA [CACACA_site5089] | 9.61
3 | TAAATATATTAATACACACACGATATGTACAAAAAA [CACACA_site540] | 10.1
4 | TATATATATATATAATGTACATATAATATATTTATT [XGTACX_site7892] | 9.54
5 | TGCATATACGCAAGCACACATATATATATATATATA [CACACA_site1069] | 9.6
6 | TTTTGATTTCCTATTGCACACTTTTTTTAAGTTTAT [CACACA_site1056] | 9.94
7 | ACAGCTACCAGATACTGTACTTTTCTCCAGACTGCA [XGTACX_site2541] | 9.5
8 | AATTTATAATTATAGAGTACATATTTTTAATATATA [XGTACX_site2566] | 9.42
9 | ATATACACTTAATTTTTTATAAAAAAAAATTTATAT [CACACA_negctrl_site498] | 9.34
10 | GTAATAATTTTTTGTAGTACACAAAAATTCATATTT [XGTACX_site2699] | 9.7
11 | ATGTGATATAAGTACACACACATATGTATTTATAAC [CACACA_site6942] | 10
12 | TATATTTTGTTCTTTCCACACACAAATACATATATT [CACACA_site9348] | 10.1
13 | ATATACATAATCTTCTTGCACTTTTTTTTTTTTTTT [GTGCAC_site9410] | 9.76
14 | ATTAATTTTAATAAAGGTACACGTAGTTTTTTATTA [XGTACX_site7868] | 9.42
15 | TTAAAATTAAAAATGCGTACACATATACATAAAAAA [XGTACX_site1915] | 9.81
16 | AACAAAACCTTATATGTACACACATATACATCACAC [CACACA_site9037] | 10.3
17 | TATATATATATATATTGTACTGAACGTTTTTTTTTG [XGTACX_site8060] | 9.92
18 | TATATAATATATATATGTACATATATATATGTTTTT [XGTACX_site3347] | 9.62
19 | TATACATAAAACAGTTCACACATTGTATGAATATAT [CACACA_site4751] | 9.87
20 | TACAAACACCCATATACACACAAAAAAAAAATAAAA [CACACA_site5421] | 9.94
21 | AGAAAAACTTATATGATACACACGATAAACAAAATA [CACACA_site1038] | 9.79
22 | GGCAATACATAATAATGTACATAATTATATAATATT [XGTACX_site3739] | 9.61

Row | Sequence | gcPBM binding intensity (ln)
23 | TATATCTGTTTATATTGTACACATATATATATATAT [XGTACX_site714] | 9.92
24 | GGACAACAAACAAACACACACAAAAAAAAAATAAAA [CACACA_site3791] | 11
25 | AATTTTTCAAATTAATGTACTTGTTATAAATTGTAA [XGTACX_site5428] | 9.41
26 | TTGTTTCTTTTTTTTTGTACATATATATTGTATATT [XGTACX_site7602] | 9.89
27 | TACGTATTTTAATATTTACACACTTATTTTTTATAT [CACACA_site7924] | 9.93
28 | AGGTAAAAATGGTAAGTGCATTAATGATAAAAAATG | 10.1
29 | GAATATTCACATACTTGTACATATATATATATATAT [XGTACX_site7302] | 9.84
30 | TAATAATAGTACTGACATCGAAATATTATTAAAAAT [CACACA_negctrl_site255] | 9.6
31 | TGGCAAAATAGGCACACACACATATACCTATAGATT [CACACA_site7168] | 10.3
32 | GTAAATATATAAACATGTACATATATAAATATATAA [XGTACX_site7262] | 9.83
33 | ATATTTTGGGGACTTTTTAAAAAAGAAGTATTAAAA [CACACA_negctrl_site1228] | 9.36
34 | CAAAAAAAATAAAACACACACACAAAAAAATAAAAA [CACACA_site466] | 10.7
35 | GTTTACATAGATAACTGTACGCAATGATATTAGACA [XGTACX_site1320] | 9.5
36 | TATAAGAATAAAAAGGGTACATAAAATAATAATATA [XGTACX_site2355] | 9.74
37 | GATAATTTTTTTCTCACACACAAATATTTTAATCAT [CACACA_site3666] | 9.97
38 | AAATATATTATATCATATATTAAAGCATATATTAAA [CACACA_negctrl_site1624] | 9.49
39 | TTCTTTTTATTTATATTTTCCCCTCTCTATAGCTAT [XGTACX_negctrl_site102] | 9.62
40 | CAAAATAATAATAAAAGTACTAACATATTTATGAAA [XGTACX_site6078] | 9.8
41 | ATAATTCAAAAAAACACACAAATTACAAAATAAACT [CACACA_site6264] | 9.92
42 | ATATTTCTGTGTGGATGTACATTATTAGCAGGCTTT [XGTACX_site6496] | 9.65
43 | AAAATATATACACAAACATGCATATAATAAATAAAT [TGCATGCA_site711] | 9.99
44 | CATTATGTCGTAAATACACACATACCTATACATACA [CACACA_site6763] | 9.9

Row | Sequence | gcPBM binding intensity (ln)
45 | CCATAAGATATATGTAGTACATATTATATATATATA [XGTACX_site2104] | 9.65
46 | TATACACATATATAAACACACAAAAAAAAAAAAAAA [CACACA_site7041] | 9.57
47 | AATATATAGCTAAAAACACACAAATATATACGCATA [CACACA_site3608] | 9.84
48 | GTTTACATTAAAAATTGTACTCTGTATGAATAATAT [XGTACX_site80] | 9.57
49 | CTTAAAAAAACCTTAACACACATAAACTCTAATTTA [CACACA_site7430] | 9.68
50 | ATTTCATTTTATAAGTGTACAATAAAAAAAAAAAAA [XGTACX_site8677] | 9.44
51 | ATATAAACAGAAAATAGTACTTTATATTGAAAAAAA [XGTACX_site7183] | 9.69
52 | GATGATACAAAGTAATGTACATAAATACACATATTG [XGTACX_site3177] | 9.8
53 | AAATTTGATATAAAAAGTACAAAATGTTCCTCAGCT [XGTACX_site809] | 9.76
54 | CTCTTCTATATATAAGCATGCATTCATAATAATTTA [TGCATGCA_site679] | 9.6
55 | TAGATACTTGTCATGGGTACATATCGTACCTTTTGG [XGTACX_site6781] | 9.45
56 | TTTATATGATATATTACACACAAAAAAAAAAAAAAA [CACACA_site3549] | 9.47
57 | TCATTCATATGTTACACACACACACCCACATAAAAA [CACACA_site3245] | 11.2
58 | CATAATTATGCAATTGCACACAACTATCATTTTTTT [CACACA_site2997] | 10.2
59 | AAACCAAGGCACAATAATTAAATAAATAAAATCATG [GTGCAC_negctrl_site574] | 9.58
60 | ATTTATATATATATAGGTACACATATTTATATATAA [XGTACX_site8487] | 9.56
61 | ATATAATTTTTCAAGTGTACTTTTTTTTTTTAACAT [XGTACX_site3050] | 9.68
62 | GATTATATATGAAAATGTACAAATATATATATATAT [XGTACX_site5963] | 9.58
63 | AAAAAAAAAAAAAAAAAAAAAAAAAAATACATATGT [XGTACX_negctrl_site95] | 9.44
64 | TTTTTGTATGCTTCCCGACTACATTATGCCATAAAT [CACACA_negctrl_site136] | 9.72
65 | TATATATAAAAAACATGTACACAAATTTACATACAT [XGTACX_site4777] | 9.79
66 | TCACTAAACCATTAGAGTACTTGACATATAATGAGC [XGTACX_site3272] | 9.45

Row | Sequence | gcPBM binding intensity (ln)
67 | AAGAGTTAAAAAAATACACACATATATATTTTTTTA [CACACA_site1980] | 9.86
68 | ATATATCTATATGTGTGTACATATAAGTATTTATAT [XGTACX_site5333] | 9.87
69 | ACATATAAACTGTATACACACAAATATTGCATATAT [CACACA_site6804] | 9.92
70 | AGAAAAGAGAAATGGGCACACACACCCATATTATAT [CACACA_site8433] | 10.1
71 | TACATTCTAAATATTACACACTTTATAAAATAATAA [CACACA_site4069] | 9.46
72 | ATATATATAAATATATGTACTAATATATACATATAT [XGTACX_site2289] | 9.61
73 | AAGGTGGGAAAAAATAGTACACAACAAAAATGTATG [XGTACX_site8741] | 9.74
74 | AAAAAAATAAAAAATATATAAATAATTAATACATGT [GTGCAC_negctrl_site633] | 9.73
75 | CACACAACTATCAAGGTGCTAAAATGAAATAATATA [GTGCAC_site9871] | 9.66
76 | AATATAAATAAAAACACACACACACGGATATTTATA [CACACA_site7134] | 10.8
77 | CCCATGTAATATTAAACACACACTCATATAACACAA [CACACA_site7906] | 10
78 | ATATTATATCTAATCGTGCACAACTGTACATTTGTC | 9.74
79 | TTGTATCATATATTATGTACATATTTATTTATTATC [XGTACX_site7723] | 9.75
80 | CAAAATATTTAAAAAAGTACTTAAAATAAATTCAAA [XGTACX_site6866] | 9.58
81 | ATATTTAAATATATTTATATATATAAAAAAAAATAT [GTGCAC_negctrl_site312] | 9.62
82 | AAAAAGAACACAAAAAGTACAAAAATTATAATGATA [XGTACX_site2676] | 9.92
83 | AAACTTCAAAAAGAGCACTTGAATTTTTTTTTTTTT [TGCATGCA_negctrl_site133] | 9.37
84 | AATATGTTTTACGTCTCACACATATAGGTTTATATT [CACACA_site4713] | 9.83
85 | CATAAATACAAATATACACACATATTTATATTTATA [CACACA_site7277] | 9.78
86 | ATTATACTTTCCATTCGTACATATATAAATAAATAA [XGTACX_site6245] | 9.48
87 | ATATATAGATGTGAATTATTTATATTATCTATTCTT [CACACA_negctrl_site518] | 9.61
88 | TATTTAAAATAATAACAAAATTAACATAAATATATA [GTGCAC_negctrl_site472] | 9.41
